Measured values: the supplement of paper PMC8728848
The other results are listed elsewhere or left out.

Assays:
Assay in all cases: glycan array binding signal (z-score within array); higher = stronger binding
Settings in all cases: glycan notation: IUPAC condensed, linker removed
Kdn(a2-3)Gal(b1-4)GlcNAc = target: Kdn(a2-3)Gal(b1-4)GlcNAc
In short: (§1)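 Glycan array binding is given as a within-array Z-score, which can be read as non-binding when negative. The arrays, 3228 of them, came from the Consortium for Functional Glycomics database and were retained only where the protein sequence was available. Z-scores were averaged across arrays of the same protein sequence at different concentrations or buffers and across linkers.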

[1] = target: Man(a1-2)Man(a1-2)Man(a1-3)Man
In short: as §1

[2] = target: Man(a1-2)Man(a1-2)Man(a1-3)[Man(a1-2)Man(a1-3)[Man(a1-2)Man(a1-6)]Man(a1-6)]Man(b1-4)GlcNAc(b1-4)GlcNAc
In short: as §1

[3] = target: Man(a1-2)Man(a1-2)Man(a1-3)[Man(a1-2)Man(a1-6)[Man(a1-3)]Man(a1-6)]Man(b1-4)GlcNAc(b1-4)GlcNAc
In short: as §1

[4] = target: Man(a1-2)Man(a1-2)Man(a1-6)[Man(a1-3)]Man
In short: as §1

Man(a1-2)Man(a1-3)Man = target: Man(a1-2)Man(a1-3)Man
In short: as §1

[5] = target: Man(a1-2)Man(a1-3)[Man(a1-2)Man(a1-6)]Man
In short: as §1

[6] = target: Man(a1-2)Man(a1-3)[Man(a1-3)[Man(a1-6)]Man(a1-6)]Man(b1-4)GlcNAc(b1-4)GlcNAc
In short: as §1

[7] = target: Man(a1-2)Man(a1-3)[Man(a1-6)]Man(a1-6)[Man(a1-2)Man(a1-3)]Man(b1-4)GlcNAc(b1-4)GlcNAc
In short: as §1

Man(a1-3)[Man(a1-6)]Man = target: Man(a1-3)[Man(a1-6)]Man
In short: as §1

[8] = target: Man(a1-3)[Man(a1-6)]Man(a1-6)[Man(a1-3)]Man(b1-4)GlcNAc(b1-4)GlcNAc
In short: as §1

[9] = target: Man(a1-3)[Man(a1-6)]Man(b1-4)GlcNAc(b1-4)GlcNAc
In short: as §1

Man(b1-4)GlcNAc = target: Man(b1-4)GlcNAc
In short: as §1

Neu5Ac(a2-3)Gal = target: Neu5Ac(a2-3)Gal
In short: as §1

[10] = target: Neu5Ac(a2-3)Gal(b1-3)GalNAc
In short: as §1

[11] = target: Neu5Ac(a2-3)Gal(b1-3)GalNAc(b1-3)Gal(a1-4)Gal(b1-4)Glc
In short: as §1

[12] = target: Neu5Ac(a2-3)Gal(b1-3)GalNAc(b1-4)[Neu5Ac(a2-3)]Gal(b1-4)Glc
In short: as §1

[13] = target: Neu5Ac(a2-3)Gal(b1-3)GalNAc6S
In short: as §1

[14] = target: Neu5Ac(a2-3)Gal(b1-3)GlcNAc
In short: as §1

[15] = target: Neu5Ac(a2-3)Gal(b1-3)GlcNAc(b1-3)Gal(b1-4)GlcNAc
In short: as §1

[16] = target: Neu5Ac(a2-3)Gal(b1-3)GlcNAc6S
In short: as §1

[17] = target: Neu5Ac(a2-3)Gal(b1-3)[Fuc(a1-4)]GlcNAc
In short: as §1

[18] = target: Neu5Ac(a2-3)Gal(b1-3)[Fuc(a1-4)]GlcNAc(b1-3)Gal(b1-4)[Fuc(a1-3)]GlcNAc
In short: as §1

[19] = target: Neu5Ac(a2-3)Gal(b1-3)[Neu5Ac(a2-3)Gal(b1-4)]GlcNAc
In short: as §1

[20] = target: Neu5Ac(a2-3)Gal(b1-3)[Neu5Ac(a2-6)]GalNAc
In short: as §1

Neu5Ac(a2-3)Gal(b1-4)Glc = target: Neu5Ac(a2-3)Gal(b1-4)Glc
In short: as §1

[21] = target: Neu5Ac(a2-3)Gal(b1-4)GlcNAc
In short: as §1

[22] = target: Neu5Ac(a2-3)Gal(b1-4)GlcNAc(b1-3)Gal(b1-4)GlcNAc
In short: as §1

[23] = target: Neu5Ac(a2-3)Gal(b1-4)GlcNAc(b1-3)Gal(b1-4)GlcNAc(b1-3)Gal(b1-4)GlcNAc
In short: as §1

[24] = target: Neu5Ac(a2-3)Gal(b1-4)GlcNAc(b1-3)Gal(b1-4)[Fuc(a1-3)]GlcNAc
In short: as §1

[25] = target: Neu5Ac(a2-3)Gal(b1-4)GlcNAc6S
In short: as §1

[26] = target: Neu5Ac(a2-3)Gal(b1-4)[Fuc(a1-3)]GlcNAc
In short: as §1

B1: Siglec 6 (Homo sapiens), O43699 (protein)
chain: MLPLLLPLLWAGALAQERRFQLEGPESLTVQEGLCVLVPCRLPTTLPASYYGYGYWFLEGADVPVATNDPDEEVQEETRGRFHLLWDPRRKNCSLSIRDARRRDNAAYFFRLKSKWMKYGYTSSKLSVRVMALTHRPNISIPGTLESGHPSNLTCSVPWVCEQGTPPIFSWMSAAPTSLGPRTTQSSVLTITPRPQDHSTNLTCQVTFPGAGVTMERTIQLNVSYAPQKVAISIFQGNSAAFKILQNTSSLPVLEGQALRLLCDADGNPPAHLSWFQGFPALNATPISNTGVLELPQVGSAEEGDFTCRAQHPLGSLQISLSLFVHWKPEGRAGGVLGAVWGASITTLVFLCVCFIFRVKTRRKKAAQPVQNTDDVNPVMVSGSRGHQHQFQTGIVSDHPAEAGPISEDEQELHYAVLHFHKVQPQEPKVTDTEYSEIKIHK
glycan array binding signal (z-score) (Kdn(a2-3)Gal(b1-4)GlcNAc): -0.395 | glycan array binding signal (z-score) [1]: -0.148 | glycan array binding signal (z-score) [2]: -0.32 | glycan array binding signal (z-score) [3]: -0.537 | glycan array binding signal (z-score) [4]: -0.41 | glycan array binding signal (z-score) (Man(a1-2)Man(a1-3)Man): 0.114 | glycan array binding signal (z-score) [5]: -0.281 | glycan array binding signal (z-score) [6]: -0.141 | glycan array binding signal (z-score) [7]: -0.209 | glycan array binding signal (z-score) (Man(a1-3)[Man(a1-6)]Man): -0.208 | glycan array binding signal (z-score) [8]: -0.265 | glycan array binding signal (z-score) [9]: -0.276 | glycan array binding signal (z-score) (Man(b1-4)GlcNAc): -0.385 | glycan array binding signal (z-score) (Neu5Ac(a2-3)Gal): -0.464 | glycan array binding signal (z-score) [10]: -0.164 | glycan array binding signal (z-score) [11]: 0.476 | glycan array binding signal (z-score) [12]: -0.36 | glycan array binding signal (z-score) [13]: -0.099 | glycan array binding signal (z-score) [14]: -0.151 | glycan array binding signal (z-score) [15]: -0.167 | glycan array binding signal (z-score) [16]: -0.367 | glycan array binding signal (z-score) [17]: -0.566 | glycan array binding signal (z-score) [18]: -0.38 | glycan array binding signal (z-score) [19]: -0.33 | glycan array binding signal (z-score) [20]: -0.317 | glycan array binding signal (z-score) (Neu5Ac(a2-3)Gal(b1-4)Glc): -0.332 | glycan array binding signal (z-score) [21]: -0.357 | glycan array binding signal (z-score) [22]: -0.522 | glycan array binding signal (z-score) [23]: -0.468 | glycan array binding signal (z-score) [24]: -0.55 | glycan array binding signal (z-score) [25]: -0.039 | glycan array binding signal (z-score) [26]: -0.244
